Among the data in publication PMC9911399, “Two distinct binding modes provide the RNA-binding protein RbFox with extraordinary sequence specificity” are binding signal values, retold here.

Residue numbers refer to the chain shown, from its start. Some of the results follow.

The labels stand for the following.
T1: RBFOX1 RRM (Homo sapiens, UniProt Q9NWB1 109-208)
T1 sequence: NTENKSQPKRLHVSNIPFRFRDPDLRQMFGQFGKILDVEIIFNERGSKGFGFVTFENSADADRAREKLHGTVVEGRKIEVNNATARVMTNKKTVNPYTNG

B1: CAGCUAA (DNA:RNA)
RNA: GGGAGACCGGAAUUCAGAUUGUCCCAGCUAAUUAAAUCCCGUCGUAGCCACCA
DNA 1: CAATCTGAATTCCGGTCTCCC
DNA 2: TGGTGGCTACGACGGGATT
B2: UGCAAAU (DNA:RNA)
RNA: B1 RNA with C25U, A26G, G27C, C28A, U29A, A31U
DNA 1: CAATCTGAATTCCGGTCTCCC
DNA 2: TGGTGGCTACGACGGGATT
B3: GAUCCGC (DNA:RNA)
RNA: B1 RNA with C25G, G27U, U29C, A30G, A31C
DNA 1: CAATCTGAATTCCGGTCTCCC
DNA 2: TGGTGGCTACGACGGGATT
B4: AUAGCUC (DNA:RNA)
RNA: GGGAGACCGGAAUUCAGAUUGUCCAUAGCUCUUAAAUCCCGUCGUAGCCACCA
DNA 1: CAATCTGAATTCCGGTCTCCC
DNA 2: TGGTGGCTACGACGGGATT
B5: CUAGUCU (DNA:RNA)
RNA: B4 RNA with A25C, C29U, U30C, C31U
DNA 1: CAATCTGAATTCCGGTCTCCC
DNA 2: TGGTGGCTACGACGGGATT
B6: ACCUCUC (DNA:RNA)
RNA: B4 RNA with U26C, A27C, G28U
DNA 1: CAATCTGAATTCCGGTCTCCC
DNA 2: TGGTGGCTACGACGGGATT
B7: GCGACGA (DNA:RNA)
RNA: B1 RNA with C25G, A26C, C28A, U29C, A30G
DNA 1: CAATCTGAATTCCGGTCTCCC
DNA 2: TGGTGGCTACGACGGGATT
B8: ACUGCAC (DNA:RNA)
RNA: B4 RNA with U26C, A27U, U30A
DNA 1: CAATCTGAATTCCGGTCTCCC
DNA 2: TGGTGGCTACGACGGGATT
B9: UCGAGCG (DNA:RNA)
RNA: B1 RNA with C25U, A26C, C28A, U29G, A30C, A31G
DNA 1: CAATCTGAATTCCGGTCTCCC
DNA 2: TGGTGGCTACGACGGGATT
B10: UUACUAC (DNA:RNA)
RNA: B4 RNA with A25U, G28C, C29U, U30A
DNA 1: CAATCTGAATTCCGGTCTCCC
DNA 2: TGGTGGCTACGACGGGATT
B11: AAUGUAC (DNA:RNA)
RNA: B4 RNA with U26A, A27U, C29U, U30A
DNA 1: CAATCTGAATTCCGGTCTCCC
DNA 2: TGGTGGCTACGACGGGATT
B12: GUGGGUA (DNA:RNA)
RNA: B4 RNA with A25G, A27G, C29G, C31A
DNA 1: CAATCTGAATTCCGGTCTCCC
DNA 2: TGGTGGCTACGACGGGATT
B13: AUAUCGA (DNA:RNA)
RNA: B4 RNA with G28U, U30G, C31A
DNA 1: CAATCTGAATTCCGGTCTCCC
DNA 2: TGGTGGCTACGACGGGATT
B14: CGCUACU (DNA:RNA)
RNA: B1 RNA with A26G, G27C, C28U, U29A, A30C, A31U
DNA 1: CAATCTGAATTCCGGTCTCCC
DNA 2: TGGTGGCTACGACGGGATT
B15: AAGCCGU (DNA:RNA)
RNA: B1 RNA with C25A, U29C, A30G, A31U
DNA 1: CAATCTGAATTCCGGTCTCCC
DNA 2: TGGTGGCTACGACGGGATT
B16: UUCUAAC (DNA:RNA)
RNA: B4 RNA with A25U, A27C, G28U, C29A, U30A
DNA 1: CAATCTGAATTCCGGTCTCCC
DNA 2: TGGTGGCTACGACGGGATT
B17: GCUGCUA (DNA:RNA)
RNA: B4 RNA with A25G, U26C, A27U, C31A
DNA 1: CAATCTGAATTCCGGTCTCCC
DNA 2: TGGTGGCTACGACGGGATT
B18: AUCGUCA (DNA:RNA)
RNA: B4 RNA with A27C, C29U, U30C, C31A
DNA 1: CAATCTGAATTCCGGTCTCCC
DNA 2: TGGTGGCTACGACGGGATT
B19: AGAUCGA (DNA:RNA)
RNA: B4 RNA with U26G, G28U, U30G, C31A
DNA 1: CAATCTGAATTCCGGTCTCCC
DNA 2: TGGTGGCTACGACGGGATT
B20: GUAUCGG (DNA:RNA)
RNA: B4 RNA with A25G, G28U, U30G, C31G
DNA 1: CAATCTGAATTCCGGTCTCCC
DNA 2: TGGTGGCTACGACGGGATT
B21: AACGUUC (DNA:RNA)
RNA: B4 RNA with U26A, A27C, C29U
DNA 1: CAATCTGAATTCCGGTCTCCC
DNA 2: TGGTGGCTACGACGGGATT
B22: AUCUCGA (DNA:RNA)
RNA: B4 RNA with A27C, G28U, U30G, C31A
DNA 1: CAATCTGAATTCCGGTCTCCC
DNA 2: TGGTGGCTACGACGGGATT
B23: CAGCAUC (DNA:RNA)
RNA: B1 RNA with U29A, A30U, A31C
DNA 1: CAATCTGAATTCCGGTCTCCC
DNA 2: TGGTGGCTACGACGGGATT
B24: ACGCUGC (DNA:RNA)
RNA: B1 RNA with C25A, A26C, A30G, A31C
DNA 1: CAATCTGAATTCCGGTCTCCC
DNA 2: TGGTGGCTACGACGGGATT
B25: UAGUAGC (DNA:RNA)
RNA: B1 RNA with C25U, C28U, U29A, A30G, A31C
DNA 1: CAATCTGAATTCCGGTCTCCC
DNA 2: TGGTGGCTACGACGGGATT
B26: CGAUUUA (DNA:RNA)
RNA: B1 RNA with A26G, G27A, C28U, A30U
DNA 1: CAATCTGAATTCCGGTCTCCC
DNA 2: TGGTGGCTACGACGGGATT
B27: AUUAAGC (DNA:RNA)
RNA: B4 RNA with A27U, G28A, C29A, U30G
DNA 1: CAATCTGAATTCCGGTCTCCC
DNA 2: TGGTGGCTACGACGGGATT
B28: UAGCACA (DNA:RNA)
RNA: B1 RNA with C25U, U29A, A30C
DNA 1: CAATCTGAATTCCGGTCTCCC
DNA 2: TGGTGGCTACGACGGGATT
B29: GUCACGU (DNA:RNA)
RNA: B4 RNA with A25G, A27C, G28A, U30G, C31U
DNA 1: CAATCTGAATTCCGGTCTCCC
DNA 2: TGGTGGCTACGACGGGATT
B30: UGUAACA (DNA:RNA)
RNA: B1 RNA with C25U, A26G, G27U, C28A, U29A, A30C
DNA 1: CAATCTGAATTCCGGTCTCCC
DNA 2: TGGTGGCTACGACGGGATT
B31: AAACUGG (DNA:RNA)
RNA: B1 RNA with C25A, G27A, A30G, A31G
DNA 1: CAATCTGAATTCCGGTCTCCC
DNA 2: TGGTGGCTACGACGGGATT

This test has as its target T1, RBFOX1 RRM. In words: EMSA; HiTS-Eq, 1 nM pool, 10 min; buffer printed only for the single-RNA assays: 10 mM Tris pH 7.5, 150 mM NaCl, 3.4 mM EDTA, 0.001% NP-40, 30 C. The settings on record: tags: His6 N-terminal (pET28a); label: 5' 32P. In a few lines:
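Purified RbFox RRM, wild type or mutant, was incubated for 10 min in 50 µL with 1 nM of a 5′-radiolabelled RNA pool carrying 7 randomized nucleotides, whose flanks were annealed to DNA oligonucleotides, over a series of increasing protein concentrations. Unbound RNA was resolved on 8% native PAGE, cut out, reverse-transcribed, barcoded by PCR and sequenced on an Illumina HiSeq 2500. Relative association constants were derived from changes in read counts for each RNA species versus the control reaction and normalised to the cognate motif.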
Background: A gel shift assay detects complexes by their altered migration in electrophoresis.
Take B1: the binding signal was 0.00179 KA relative to UGCAUGU.
As for B2, the binding signal was 0.00953 KA relative to UGCAUGU.
For the molecule B3, the binding signal is 0.0132 KA relative to UGCAUGU.
In the case of B4, the binding signal is 0.00406 KA relative to UGCAUGU.
In the case of B5, the binding signal was 0.00711 KA relative to UGCAUGU.
For B6, the binding signal was 0.000784 KA relative to UGCAUGU.
For the molecule B7, the binding signal is 0.0141 KA relative to UGCAUGU.
As for B8, the binding signal was 0.00599 KA relative to UGCAUGU.
For B9, the binding signal was 0.0144 KA relative to UGCAUGU.
B10: the binding signal was 0.00404 KA relative to UGCAUGU.
As to B11, the binding signal is 0.00459 KA relative to UGCAUGU.
With B12, the binding signal was 0.0204 KA relative to UGCAUGU.
In the case of B13, the binding signal is 0.0043 KA relative to UGCAUGU.
On to B14, for which the binding signal is 0.00873 KA relative to UGCAUGU.
As to B15, the binding signal was 0.00255 KA relative to UGCAUGU.
For the molecule B16, the binding signal was 0.00535 KA relative to UGCAUGU.
As to B17, the binding signal was 0.0167 KA relative to UGCAUGU.
With B18, the binding signal was 0.00413 KA relative to UGCAUGU.
As for B19, the binding signal is 0.013 KA relative to UGCAUGU.
In the case of B20, the binding signal is 0.00781 KA relative to UGCAUGU.
The result for B21 reads 0.00687 KA relative to UGCAUGU; that for B22, 0.0108 KA relative to UGCAUGU; that for B23, 0.0124 KA relative to UGCAUGU.
In the case of B24, the binding signal was 0.0121 KA relative to UGCAUGU.
Take B25: the binding signal was 0.0177 KA relative to UGCAUGU.
B26: the binding signal was 0.00619 KA relative to UGCAUGU.
Consider B27, for which the binding signal was 0.00381 KA relative to UGCAUGU.
On to B28, for which the binding signal was 0.00585 KA relative to UGCAUGU.
As for B29, the binding signal was 0.00913 KA relative to UGCAUGU.
For the molecule B30, the binding signal was 0.00979 KA relative to UGCAUGU.
The result for B31 reads 0.0079 KA relative to UGCAUGU.
